{"source": "the supplement of paper PMC10115384", "binders": {"B1": {"name": "ADI-67999 (protein)", "chain 1": "QVQLVQSGAEVKKPGSSVKVPCKASGGTFSNYGISWVRQSPGQGPEWLGGILPILGTVNYAQKFQGRVTITADESRTTAYMELSSLRSEDTAVYYCARERGYSGYGASLYFDYWGQGTLVTVSS", "chain 2": "QSVLTQPPSVSGAPGQRVTISCTGSNSNIGAGYDVHWYQRLPGTAPKLLIYGNNNRPSGVPDRFSGSKSDTSASLAITGLQAEDEADYYCQSYDSSLSGAVFGTGTKVTVL"}, "B2": {"name": "ADI-67128 (protein)", "chain 1": "EVQLVESGGGLVQPGGSLRLSCAASGFTFSNYDMHWVRQGAGKGLEWVSLIGTDGDTYYPASVKGRFTISRENAKNSLYLQMNSLRAGDTAVYYCVRVNYDSSGYYHYFDYWGQGTLVTVSS", "chain 2": "DIQMTQSPSSLSASVGDRVTITCRASQSISNYLNWYQQKPGKAPKLLIYAASSLQSGVPSRFSGSGSGTDFTLTISSLQPEDFATYYCQQTYNIPPITFGQGTRLEIK"}, "B3": {"name": "ADI-67137 (protein)", "chain 1": "EVQLVQSGAEVKKPGESLKISCKGSGYNFANYWIGWVRQMPGKGLEWMGIIYPSHSDIRYSPSFQGQVTISADKSISTAYLQWSSLKASDTAMYYCTRQIGHYGSGSEDYWGQGTLVTVSS", "chain 2": "QSALTQPASVSGSPGQSITISCTGTSSDVGGYNHVSWYQQHPGKAPKLMIYDVSNRPSGVSNRFSGSKSGNTASLTISGLQAEDEADYYCSSYTSRNTLGEVFGTGTKVTVL"}, "B4": {"name": "ADI-67145 (protein)", "chain 1": "QVQLVESGGGVVQPGRSLRLSCAASGFTFTTYAMHWVRQAPGKGLEWVALISYDGDNKYYPDSVKGRFTISRDNSKNTLYLQMNSLTTEDTAVYYCARAYGGSYYGAFDIWGQGTMVTVSS", "chain 2": "DIVMTQSPDSLAVSLGERATINCKSSQSVLYNSNNKNYLAWYQQKPGQPPKLLIYWASTRESGVPDRFSGSGSGTDFTLTISSLQAEDVAVYYCQQYYSTPPYTFGQGTKVEIK"}, "B5": {"name": "ADI-67139 (protein)", "chain 1": "QVQLQESGPGLVKPSQTLSLTCTVSGGSISSGSYYWSWIRQHPGKGLEWIGYIHYSGNTYYNPSLKSRISISVDTSKNHFSLKLNSVTAADTAVYYCARDSDYGEYFDSWGQGTLVTVSS", "chain 2": "EIVLTQSPATLSLSPGERATLSCRASQSVSSYLAWYQQKAGQAPRLLIYDASNRATGIPARFSGSGSGTDFTLTISSLEPEDYAVYYCQQRYNWPPITFGQGTRLEIK"}, "B6": {"name": "ADI-67140 (protein)", "chain 1": "EVQLVETGGGLIQPGGSLRLSCAASGVIISNNYMSWVRQAPGKGLEWVSVIYSGGSTFYADSVKGRFTISRDNSKNTLYLQMNNLRAEDTAVYFCAREAYAFDIWGQGTMVTVSS", "chain 2": "DIQLTQSPSFLSASVGDRVTITCRASQGISSYLAWYQQKPGKAPKLLIYGASTLQRGVPSRFSGSGSGTEFTLTITSLQPEDFATYYCQQLNSHPPAFGGGTKVEIK"}, "B7": {"name": "ADI-67138 (protein)", "chain 1": "QLQLQESGPGLVKPSETLSLTCTVSGDSITSRNYYWGWVRQPPGKGLEWIGSIFYNVNTYYNPSLMSRITMSVDTSKNQFSLKLTSLTAADTAVYYCAVGGVRSLEWLLQFDYWGQGTLVTVSS", "chain 2": "QSALTQPPSASGSPGQSVTISCTGTSSDVGYSNYVSWYQQHPGKAPKLMIFEVSERPSGVPDRFSGSKSGNTASLTVSGLQAEDEADYYCSSYAGSSSLVFGTGTKVTVL"}, "B8": {"name": "ADI-67183 (protein)", "chain 1": "QLQLQESGPGLMKPSETLSLTCNVSGGSISSSDYYWGWIRQPPGKGLEWIGSYYYVGSTYYNPSLKSRVTISVDTSKSQFSLKLTSVTAADTAVYYCAVGGVRFFEWLLQFDYWGQGTLVTVSS", "chain 2": "QSALTQPPSASGSPGQSVTISCTGTSSDVGASNYVSWYQQHPGKAPKLMIYELTKRPSGVPDRFSGSKSGNTASLTVSGLQAADEAHYYCSSYAGSSSLIFGGGTKLTVL"}, "B9": {"name": "ADI-67218 (protein)", "chain 1": "QVQLQQWGAGLLKPSETLSLTCAVYSGSFSGSSWSWIRQPPGKGLEWIGEINHSGSTNYNSSLKSRVTISIDTSKNQFSLRLNSVTAADTAVYYCARWDLLYPRDAFDIWGQGTMVTVSS", "chain 2": "QSALTQPRSVSGSPGQSVTISCTGTSSDVGGYNYVSWYQQHPGKAPKLMTYDVSKRPSGVPDRFSGSKSGNTASLTIAGLQAEDEAEYHCCSYAGSYVVFGGGTKLTVL"}, "B10": {"name": "ADI-67119 (protein)", "chain 1": "EVQLVETGGGLIQPGESLRLSCAASGLTVSTNYMTWVRQAPGKGLEWVSIIYSGGSTFYADSVRGRFTISRDNSKNTLYLQMNSLRVEDTAVYFCARDSVRGGMDVWGQGTTVTVSS", "chain 2": "SYELTQPLSVSVALGQTARITCGGDNVGDETVFWYHQKPGQAPVLVLYGDSNRPSGIPERFSGSKSGNTATLTITRAQAGDEADYYCQVWDTTSVIFGGGTKLTVL"}, "B11": {"name": "ADI-67225 (protein)", "chain 1": "EVQLVESGGGLVKPGGSLRLSCAASGFTFSSYSINWVRQAPGKGLEWVSSISSRSNYIYYADSVKGRFTISRDNAKNSLYLQMHSLRAEDTAVYYCARDQDSGYDYGFSHYYYGLDVWGQGTTVTVSS", "chain 2": "DIQMTQSPSSVSASVGDRVTITCRASQGISSWLAWYQQKPGKAPKLLIYAASSLQSGVPSRFSGSGSGTDFTLTISRLQPEDFATYYCQQGNSFPWTFGQGTKVEIK"}, "B12": {"name": "ADI-67127 (protein)", "chain 1": "EVQLVESGGGLVQPGGSLRLSCAASGFTFEDYAMHWVRQAPGKGLEWVSGISWNSGVIDYADSVKGRFIISRDNTKNSLYLHMNSLRPEDTALYYCAKDDYPSSWYEHHPQRWAFDIWGQGTMVTVSS", "chain 2": "QSVLTQPPSVSAAPGQKVTISCSGSSSNIGNNYVSWYQQLPGTAPKLLIYDNNKRPSGIPDRFSGSKSGTSATLGITGLQTGDEADYYCGTWDSSLSVVFGGGTKLTVL"}, "B13": {"name": "ADI-67994 (protein)", "chain 1": "EVQLVESGGGLVQPGGSLRLSCAASGFTFRNYAMNWVRQAPGKGLEWVSVLSGGDGSTYYADSVKGRFTISRDNSKNTLYLQMNSLRAEDTAVYYCARDLGGYSYGLNFFYAMDVWGQGTTVTVSS", "chain 2": "QSALTQPASVSGSPGQSITISCTGTSSDVGAFNYVSWYQQHPGKAPKLMIYDVNNRPSGVSNRFSGSKSGNAASLTISGLQAEDEADYYCSSYTSSSTFVLFGGGTKLTVL"}, "B14": {"name": "ADI-67223 (protein)", "chain 1": "QVQLVESGGGVVQPGRSLRLSCAASGFTFNTYGMHWVRQAPGKGLEWVAVISYDGSHIYYADSVKGRFTISRDSSKNTLYLQMNSLRAEDTAVYYCAKDYGDYGGMDVWGQGTTVTVSS", "chain 2": "not shown"}, "B15": {"name": "ADI-67130 (protein)", "chain 1": "QVQLVQSGAEVKKPGSSVKVSCKASGGTFSSYAISWVRQAPGQGLEWMGGIIPITGTTNFAEKFQGRVTITADESTSTAYMELSSLTSEDTAVYYCARDRGYSGYGASLYFDYWGQGTLVTVSS", "chain 2": "QSVLTQPPSVSGAPVQELLTISCTGSNSNIGAGYDVHWYQQLPGTAPKLLIYRNSNRPSGVPDRFSGSKSDTSASLAITGLQAEDEADYYCQSYDSGLSGVVFGGGTKLTVL"}, "B16": {"name": "ADI-67189 (protein)", "chain 1": "QVQLVESGGGVVQPGRSLRLSCAASGFTFNNYGMHWVRQAPGKGLEWVALISYDGSLKHYADSVTGRFTISRDSSKSTLFLQMNSLRPEDTAVYYCARDYGDYAAFDSWGQGTLVTVSS", "chain 2": "DIVMTQSPDSLAVSLGERATINCKSSQSVLYSSNNKNYLTWYQQKPGQPPKLLIYWASTRESGVSDRFSGSGSGTDFTLTISSLQAEDVAVYYCQQYYSTPLTFGGGTKVEIK"}}, "note": "Human monoclonal antibodies (heavy:light variable regions, translated from the printed DNA). IC50 against SARS-CoV-2 spike pseudoviruses, on VSV particles in 293T-ACE2 cells (24 h) or MLV particles in HeLa-ACE2 cells (72 h); lower = stronger; >1.0 µg/ml as printed. No active / inactive call per row; the paper counts an IC50 of 0.4 µg/ml or less on any variant as neutralizing. Only 98 of the paper's 459 antibodies have neutralization values; the two systems are not on one scale.", "data": [{"target": "SARS-CoV-2 Beta spike pseudovirus", "assay": "pseudovirus neutralization IC50; higher = weaker neutralization", "conditions": "system: VSV particle, 293T-ACE2 cells", "procedure": "(§1)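 Single-round reporter pseudovirus mixed with dilutions of yeast-made human IgG and put on ACE2-bearing cells; IC50 from the dose curve.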", "units": {"pseudovirus neutralization IC50": "µg/mL"}, "values": [{"binder": "B1", "pseudovirus neutralization IC50": 0.641}, {"binder": "B2", "pseudovirus neutralization IC50": "> 1"}, {"binder": "B3", "pseudovirus neutralization IC50": "> 1"}, {"binder": "B4", "pseudovirus neutralization IC50": "> 1"}, {"binder": "B5", "pseudovirus neutralization IC50": "> 1"}, {"binder": "B6", "pseudovirus neutralization IC50": "> 1"}, {"binder": "B7", "pseudovirus neutralization IC50": 0.001}, {"binder": "B8", "pseudovirus neutralization IC50": 0.0027}, {"binder": "B9", "pseudovirus neutralization IC50": "> 1"}, {"binder": "B10", "pseudovirus neutralization IC50": 0.635}, {"binder": "B11", "pseudovirus neutralization IC50": "> 1"}, {"binder": "B12", "pseudovirus neutralization IC50": "> 1"}, {"binder": "B13", "pseudovirus neutralization IC50": 0.338}, {"binder": "B14", "pseudovirus neutralization IC50": "> 1"}, {"binder": "B15", "pseudovirus neutralization IC50": "> 1"}, {"binder": "B16", "pseudovirus neutralization IC50": "> 1"}]}, {"target": "SARS-CoV-2 Delta spike pseudovirus", "assay": "pseudovirus neutralization IC50; higher = weaker neutralization", "conditions": "system: VSV particle, 293T-ACE2 cells", "procedure": "as §1", "units": {"pseudovirus neutralization IC50": "µg/mL"}, "values": [{"binder": "B1", "pseudovirus neutralization IC50": "> 1"}, {"binder": "B2", "pseudovirus neutralization IC50": "> 1"}, {"binder": "B3", "pseudovirus neutralization IC50": "> 1"}, {"binder": "B5", "pseudovirus neutralization IC50": "> 1"}, {"binder": "B6", "pseudovirus neutralization IC50": 0.015}, {"binder": "B7", "pseudovirus neutralization IC50": 0.003}, {"binder": "B8", "pseudovirus neutralization IC50": 0.0008}, {"binder": "B9", "pseudovirus neutralization IC50": 0.057}, {"binder": "B10", "pseudovirus neutralization IC50": 0.0808}, {"binder": "B11", "pseudovirus neutralization IC50": "> 1"}, {"binder": "B12", "pseudovirus neutralization IC50": "> 1"}, {"binder": "B13", "pseudovirus neutralization IC50": 0.227}, {"binder": "B15", "pseudovirus neutralization IC50": "> 1"}, {"binder": "B16", "pseudovirus neutralization IC50": "> 1"}]}, {"target": "SARS-CoV-2 Omicron BA.1 spike pseudovirus", "assay": "pseudovirus neutralization IC50; higher = weaker neutralization", "conditions": "system: MLV particle, HeLa-ACE2 cells", "procedure": "as §1", "units": {"pseudovirus neutralization IC50": "µg/mL"}, "values": [{"binder": "B1", "pseudovirus neutralization IC50": 0.138}, {"binder": "B7", "pseudovirus neutralization IC50": 0.00228}, {"binder": "B8", "pseudovirus neutralization IC50": 0.00303}, {"binder": "B13", "pseudovirus neutralization IC50": 0.308}]}, {"target": "SARS-CoV-2 index (Wuhan-Hu-1) spike pseudovirus", "assay": "pseudovirus neutralization IC50; higher = weaker neutralization", "conditions": "system: MLV particle, HeLa-ACE2 cells", "procedure": "as §1", "units": {"pseudovirus neutralization IC50": "µg/mL"}, "values": [{"binder": "B1", "pseudovirus neutralization IC50": 0.201}, {"binder": "B7", "pseudovirus neutralization IC50": 0.00451}, {"binder": "B8", "pseudovirus neutralization IC50": 0.00722}, {"binder": "B10", "pseudovirus neutralization IC50": 0.00979}, {"binder": "B12", "pseudovirus neutralization IC50": 0.183}, {"binder": "B13", "pseudovirus neutralization IC50": 0.0625}]}, {"target": "SARS-CoV-2 index (Wuhan-Hu-1) spike pseudovirus", "assay": "pseudovirus neutralization IC50; higher = weaker neutralization", "conditions": "system: VSV particle, 293T-ACE2 cells", "procedure": "as §1", "units": {"pseudovirus neutralization IC50": "µg/mL"}, "values": [{"binder": "B1", "pseudovirus neutralization IC50": 0.502}, {"binder": "B2", "pseudovirus neutralization IC50": "> 1"}, {"binder": "B4", "pseudovirus neutralization IC50": "> 1"}, {"binder": "B5", "pseudovirus neutralization IC50": 0.212}, {"binder": "B6", "pseudovirus neutralization IC50": 0.012}, {"binder": "B7", "pseudovirus neutralization IC50": 0.0065}, {"binder": "B8", "pseudovirus neutralization IC50": 0.0029}, {"binder": "B9", "pseudovirus neutralization IC50": 0.0657}, {"binder": "B10", "pseudovirus neutralization IC50": 0.065}, {"binder": "B11", "pseudovirus neutralization IC50": "> 1"}, {"binder": "B12", "pseudovirus neutralization IC50": 0.0541}, {"binder": "B13", "pseudovirus neutralization IC50": 0.197}, {"binder": "B14", "pseudovirus neutralization IC50": "> 1"}, {"binder": "B15", "pseudovirus neutralization IC50": "> 1"}, {"binder": "B16", "pseudovirus neutralization IC50": 0.278}]}]}
